Results as given in US11420968B2 (priority 2018, dated 2022).
Where two headings read alike, the source gives them in different places.

What was measured:
[1] = tested on: RS4;11 cells; assay: cells; conditions: Homo sapiens
[2] = tested on: Molt-4 cells; assay: cells; conditions: Homo sapiens
[3] = RS4-11, 48 h, read-out: Cellular activity (IC50, nM) RS4, 11
[4] = MOLT-4, read-out: Cellular activity (IC50, nM) Molt-4
[5] = RS4-11, 48 h, read-out: Cellular activity (IC50, nM) RS4;11
[6] = RS4-11, read-out: Celluclar activity (IC50, nM) RS 4, 11
[7] = MOLT-4, read-out: Celluclar activity (IC50, nM) Molt-4

Row | SMILES | IC50 [1, 3] | IC50 [2, 4] | IC50 [1, 5] | IC50 [1, 6] | IC50 [2, 7]
1 | O=C(NS(=O)(=O)c1ccc(NCC2CCOCC2)c([N+](=O)[O-])c1)c1ccc(C2=CCC(N3CCCC3c3ccccc3-c3ccoc3)CC2)cc1Oc1cnc2[nH]ccc2c1 (centres unmarked) [Example C8, 3-((1H-pyrrolo[2,3-b]pyridin-5-yl)oxy)-4′-(2-(2-(furan-3-yl)phenyl)pyrrolidin-1-yl)-N-((3-nitro-4-(((tetrahydro-2H-pyran-4-yl)methyl)amino)phenyl)sulfonyl)-2′,3′,4′,5′-tetrahydro-[1,1′-biphenyl]-4-carboxamide] | 694 nM | > 10000 nM | – | – | –
2 | CN1CCC(Oc2ccccc2C2CCCN2c2ccc(-c3ccc(C(=O)NS(=O)(=O)c4ccc(NCC5CCOCC5)c([N+](=O)[O-])c4)c(Oc4cnc5[nH]ccc5c4)c3)cc2)C1 (centres unmarked) [Example A132, 3-((1H-pyrrolo[2,3-b]pyridin-5-yl)oxy)-4′-(2-(2-((1-methylpyrrolidin-3-yl)oxy)phenyl)pyrrolidin-1-yl)-N-((3-nitro-4-(((tetrahydro-2H-pyran-4-yl)methyl)amino)phenyl)sulfonyl)-[1,1′-biphenyl]-4-carboxamide] | – | 1990 nM | 4.2 nM | – | –
3 | CN1CCC(Oc2ccccc2C2CCCN2c2ccc(-c3ccc(C(=O)NS(=O)(=O)c4ccc(NCC5CCOCC5)c([N+](=O)[O-])c4)c(Oc4cnc5[nH]ccc5c4)c3)cc2)CC1 (centres unmarked) [Example A113, 3-((1H-pyrrolo[2,3-b]pyridin-5-yl)oxy)-4′-(2-(2-((1-methylpiperidin-4-yl)oxy)phenyl)pyrrolidin-1-yl)-N-((3-nitro-4-(((tetrahydro-2H-pyran-4-yl)methyl)amino)phenyl)sulfonyl)-[1,1′-biphenyl]-4-carboxamide] | – | 1190 nM | 8.6 nM | – | –
4 | O=C(NS(=O)(=O)c1ccc(NCC2CCOCC2)c([N+](=O)[O-])c1)c1ccc(C2=CCC(N3CCCC3c3ccccc3C3CC3)CC2)cc1-n1ncc2nc3[nH]ccc3cc21 (centres unmarked) [Example H3, 4′-(2-(2-cyclopropylphenyl)pyrrolidin-1-yl)-N-((3-nitro-4-(((tetrahydro-2H-pyran-4-yl)methyl)amino)phenyl)sulfonyl)-3-(pyrazolo[4,3-b]pyrrolo[3,2-e]pyridin-1(5H)-yl)-2′,3′,4′,5′-tetrahydro-[1,1′-biphenyl]-4-carboxamide] | 409 nM | > 10000 nM | – | – | –
5 | O=C(NS(=O)(=O)c1ccc(NCC2CCOCC2)c([N+](=O)[O-])c1)c1ccc(N2CCC3(CC2)CC(N2CC4CCCC4C2c2ccccc2C2CC2)C3)cc1Oc1cnc2[nH]ccc2c1 (centres unmarked) [Example F88, 2-((1H-pyrrolo[2,3-b]pyridin-5-yl)oxy)-4-(2-(1-(2-cyclopropylphenyl)hexahydrocyclopenta[c]pyrrol-2(1H)-yl)-7-azaspiro[3.5]nonan-7-yl)-N-((3-nitro-4-(((tetrahydro-2H-pyran-4-yl)methyl)amino)phenyl)sulfonyl)benzamide] | – | 6980 nM | 13 nM | – | –
6 | CCN1CCN(C2CC3(CCN(c4ccc(C(=O)NS(=O)(=O)c5ccc(NCC6CCOCC6)c([N+](=O)[O-])c5)c(Oc5cnc6[nH]ccc6c5)c4)CC3)C2)C(c2ccccc2C2CC2)C1 (centres unmarked) [Example F130, 2-((1H-pyrrolo[2,3-b]pyridin-5-yl)oxy)-4-(2-(2-(2-cyclopropylphenyl)-4-ethylpiperazin-1-yl)-7-azaspiro[3,5]nonan-7-yl)-N-((3-nitro-4-(((tetrahydro-2H-pyran-4-yl)methyl)amino)phenyl)sulfonyl)benzamide] | – | 7350 nM | 0.5 nM | 0.5 nM | 7350 nM
7 | CC(=O)N1CCC(CNc2ccc(S(=O)(=O)NC(=O)c3ccc(-c4ccc(N5CCC[C@@H]5c5ccccc5C5CC5)cc4)cc3Oc3cnc4[nH]ccc4c3)cc2[N+](=O)[O-])CC1 [Example G128, (R)-3-((1H-pyrrolo[2,3-b]pyridin-5-yl)oxy)-N-((4-(((1-acetylpiperidin-4-yl)methyl)amino)-3-nitrophenyl)sulfonyl)-4′-(2-(2-cyclopropylphenyl)pyrrolidin-1-yl)-[1,1′-biphenyl]-4-carboxamide] | – | 765 nM | 21 nM | – | –
8 | Cc1ccc(C2CC2)c(C2CCCN2C2CC=C(c3ccc(C(=O)NS(=O)(=O)c4ccc(NCC5CCOCC5)c([N+](=O)[O-])c4)c(Oc4cnc5[nH]ccc5c4)c3)CC2)c1 (centres unmarked) [Example C170, 3-((1H-pyrrolo[2,3-b]pyridin-5-yl)oxy)-4′-(2-(2-cyclopropyl-5-methylphenyl)pyrrolidin-1-yl)-N-((3-nitro-4-(((tetrahydro-2H-pyran-4-yl)methyl)amino)phenyl)sulfonyl)-2′,3′,4′,5′-tetrahydro-[1,1′-biphenyl]-4-carboxamide] | 118 nM | > 10000 nM | – | – | –
9 | CC1(C)CC(c2ccccc2)N(c2ccc(-c3ccc(C(=O)NS(=O)(=O)c4ccc(NCC5CCOCC5)c([N+](=O)[O-])c4)c(Oc4cnc5[nH]ccc5c4)c3)cc2)C1=O (centres unmarked) [Example A20, 3-((1H-pyrrolo[2,3-b]pyridin-5-yl)oxy)-4′-(3,3-dimethyl-2-oxo-5-phenylpyrrolidin-1-yl)-N-((3-nitro-4-(((tetrahydro-2H-pyran-4-yl)methyl)amino)phenyl)sulfonyl)-[1,1′-biphenyl]-4-carboxamide] | 1500 nM | > 10000 nM | – | – | –
10 | CN(C)CCOC1CC(c2ccccc2C2CC2)N(C2CC3(CCN(c4ccc(C(=O)NS(=O)(=O)c5ccc(NCC6CCOCC6)c([N+](=O)[O-])c5)c(Oc5cnc6[nH]ccc6c5)c4)CC3)C2)C1 (centres unmarked) [Example F86, 2-((1H-pyrrolo[2,3-b]pyridin-5-yl)oxy)-4-(2-(2-(2-cyclopropylphenyl)-4-(2-(dimethylamino)ethoxy)pyrrolidin-1-yl)-7-azaspiro[3.5]nonan-7-yl)-N-((3-nitro-4-(((tetrahydro-2H-pyran-4-yl)methyl)amino)phenyl)sulfonyl)benzamide] | – | > 10000 nM | 32 nM | – | –
11 | COC1CC(c2ccccc2C2CC2)N(c2ccc(-c3ccc(C(=O)NS(=O)(=O)c4ccc(NCC5CCOCC5)c([N+](=O)[O-])c4)c(Oc4cnc5[nH]ccc5c4)c3)cc2)C1 (centres unmarked) [Example A75, 3-((1H-pyrrolo[2,3-b]pyridin-5-yl)oxy)-4′-(2-(2-cyclopropylphenyl)-4-methoxypyrrolidin-1-yl)-N-((3-nitro-4-(((tetrahydro-2H-pyran-4-yl)methyl)amino)phenyl)sulfonyl)-[1,1′-biphenyl]-4-carboxamide] | 61 nM | 5340 nM | – | – | –
12 | C[C@]1(O)CC[C@H](CNc2ccc(S(=O)(=O)NC(=O)c3ccc(-c4ccc(N5CC(C(F)(F)F)CC5c5ccccc5C5CC5)cc4)cc3Oc3cnc4[nH]ccc4c3)cc2[N+](=O)[O-])CC1 (some centres unmarked) [Example G134, 3-((1H-pyrrolo[2,3-b]pyridin-5-yl)oxy)-4′-(2-(2-cyclopropylphenyl)-4-(trifluoromethyl)pyrrolidin-1-yl)-N-((4-((((1r,4r)-4-hydroxy-4-methylcyclohexyl)methyl)amino)-3-nitrophenyl)sulfonyl)-[1,1′-biphenyl]-4-carboxamide] | – | 1430 nM | 33 nM | – | –
13 | CCc1ccccc1[C@@H]1CCCN1C1CC2(CCN(c3ccc(C(=O)NS(=O)(=O)c4ccc(NCC5(F)CCOCC5)c([N+](=O)[O-])c4)c(Oc4cnc5[nH]ccc5c4)c3)CC2)C1 [Example F25, (S)-2-((1H-pyrrolo[2,3-b]pyridin-5-yl)oxy)-4-(2-(2-(2-ethylphenyl)pyrrolidin-1-yl)-7-azaspiro[3.5]nonan-7-yl)-N-((4-(((4-fluorotetrahydro-2H-pyran-4-yl)methyl)amino)-3-nitrophenyl)sulfonyl)benzamide] | – | 4410 nM | 2 nM | 2 nM | 4410 nM
14 | O=C(NS(=O)(=O)c1ccc(NCC2CCOCC2)c([N+](=O)[O-])c1)c1ccc(-c2ccc(N3CCC[C@@H]3c3ccccc3C3CCN(CCO)CC3)cc2)cc1Oc1cnc2[nH]ccc2c1 [Example A103, (R)-3-((1H-pyrrolo[2,3-b]pyridin-5-yl)oxy)-4′-(2-(2-(1-(2-hydroxyethyl)piperidin-4-yl)phenyl)pyrrolidin-1-yl)-N-((3-nitro-4-(((tetrahydro-2H-pyran-4-yl)methyl)amino)phenyl)sulfonyl)-[1,1′-biphenyl]-4-carboxamide] | – | > 10000 nM | 11 nM | – | –
15 | CN(C)c1ccccc1C1CCCN1c1ccc(-c2ccc(C(=O)NS(=O)(=O)c3ccc(NCC4CCOCC4)c([N+](=O)[O-])c3)c(Oc3cnc4[nH]ccc4c3)c2)cc1 (centres unmarked) [Example A65, 3-((1H-pyrrolo[2,3-b]pyridin-5-yl)oxy)-4′-(2-(2-(dimethylamino)phenyl)pyrrolidin-1-yl)-N-((3-nitro-4-(((tetrahydro-2H-pyran-4-yl)methyl)amino)phenyl)sulfonyl)-[1,1′-biphenyl]-4-carboxamide] | 40 nM | 3310 nM | – | – | –
16 | CN1CC=C(c2ccccc2[C@H]2CCCN2c2ccc(-c3ccc(C(=O)NS(=O)(=O)c4ccc(NC[C@@H]5COCCO5)c([N+](=O)[O-])c4)c(Oc4cnc5[nH]ccc5c4)c3)cc2)CC1 [Example G120, N-((4-((((R)-1,4-dioxan-2-yl)methyl)amino)-3-nitrophenyl)sulfonyl)-3-((1H-pyrrolo[2,3-b]pyridin-5-yl)oxy)-4′-((R)-2-(2-(1-methyl-1,2,3,6-tetrahydropyridin-4-yl)phenyl)pyrrolidin-1-yl)-[1,1′-biphenyl]-4-carboxamide] | – | > 10000 nM | 9 nM | – | –
17 | O=C(NS(=O)(=O)c1ccc(NCC2CCOCC2)c([N+](=O)[O-])c1)c1ccc(-c2ccc(N3CC(F)CC3c3ccccc3C3CC3)cc2)cc1Oc1cnc2[nH]ccc2c1 (centres unmarked) [Example A73, 3-((1H-pyrrolo[2,3-b]pyridin-5-yl)oxy)-4′-(2-(2-cyclopropylphenyl)-4-fluoropyrrolidin-1-yl)-N-((3-nitro-4-(((tetrahydro-2H-pyran-4-yl)methyl)amino)phenyl)sulfonyl)-[1,1′-biphenyl]-4-carboxamide] | 20 nM | 2110 nM | – | – | –
